The campaign covered roughly 410,000 compounds. About 6,400 (1.6%) were called active. The inconclusive results got no clear call from the source; some entries with a clear call stand among them for comparison. The call rests on the fitted dose curve; in most records, active means well fitted inhibition curve with a large enough effect; inconclusive means small, poorly fitted or top-dose-only effect; inactive means no such curve, though single readings can be large or run the other way. Potencies of inconclusive entries are left out as doubtful fits.
molecular target: Glucagon-like peptide 1 receptor (Homo sapiens) (UniProt P43220); assay: qHTS of GLP-1 Receptor Inverse Agonists (Inhibition Mode); details: HEK293 GLP-1R CRE-luciferase, luminescence, 24 h, GLP-1R form is constitutively active; activity change, negative = inhibition: at 38.3 µM (top of the series) unless noted; further: nearly all actives have a fitted effect of over 55% in size
In short: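 Inverse agonists were sought by their lowering of basal cAMP reporter luciferase output in HEK293 cells stably carrying constitutively active human GLP-1R, after 24 h compound treatment.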
On the % scale 0 is the no-effect control and ±100 the full control effect; potency means the concentration at half of the fitted maximal effect; tags describe the fitted curve by direction and shape.

Sequence of UniProt P43220 (P43220 whole entry, looked up): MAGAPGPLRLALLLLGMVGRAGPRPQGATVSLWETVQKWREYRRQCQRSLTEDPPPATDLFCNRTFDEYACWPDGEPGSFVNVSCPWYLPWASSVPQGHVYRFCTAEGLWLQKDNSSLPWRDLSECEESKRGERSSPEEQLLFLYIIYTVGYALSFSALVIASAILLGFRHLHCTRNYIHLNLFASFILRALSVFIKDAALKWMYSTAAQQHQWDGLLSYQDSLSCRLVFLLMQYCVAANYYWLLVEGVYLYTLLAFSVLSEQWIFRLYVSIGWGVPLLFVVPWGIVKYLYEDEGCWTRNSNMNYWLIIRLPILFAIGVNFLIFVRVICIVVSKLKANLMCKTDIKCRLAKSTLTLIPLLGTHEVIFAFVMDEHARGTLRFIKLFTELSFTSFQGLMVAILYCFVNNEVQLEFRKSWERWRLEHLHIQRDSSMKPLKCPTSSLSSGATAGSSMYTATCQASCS

SMILES | activity change, negative = inhibition | Potency
CC(C)(C)CC(C)(C)Nc1c(-c2ccc(O)cc2)nc2cnccn12 | inactive: -1.36% | –
Cc1ccc2sc(NNC(=O)c3ccc4c(c3)OCCO4)nc2c1C | – | inconclusive [inhibitor, single point]
CN(C(=S)Nc1ccc(SC(F)F)cc1)C(c1ccccc1)c1ccccc1 | – | inconclusive [inhibitor, partial curve, poor fit]
COc1ccccc1-c1ccc(/C=C2/C=C(CC(C)C)OC2=O)o1 | inactive: -3.55% | –
CC(C)[C@H](NC(=O)c1ccccc1)C(=O)NC1=NCCS1 | inactive: 3.42% | –
COc1cc(OC)c(NC(=O)Nc2c(C)n(C)n(-c3ccccc3)c2=O)cc1Cl | inactive: 1.84% | –
Cc1ccc(NC(=O)OC(C)N2CCCCC2)cc1NC(=O)OC(C)N1CCCCC1 (configuration not stated) | – | inconclusive [inhibitor, partial curve, poor fit]
CCCCN1CC(COCc2ccccc2)Oc2cccc(Oc3ccc(C)cc3)c2S1(=O)=O (configuration not stated) | – | active: 7.94 µM
Cc1ccnc(NS(=O)(=O)c2ccc(NC(=O)c3cc(-c4ccc(Br)cc4)nc4ccccc34)cc2)n1 | – | inconclusive [inhibitor, single point]
O=C(NC1CC(=O)N(c2cccc(F)c2)C1)C(c1ccccc1)c1ccccc1 (configuration not stated) | – | inconclusive [inhibitor, single point]
O=C(CC[C@H]1O[C@@H](n2cnc3c(NC(=O)c4ccccc4)ncnc32)[C@H](O)[C@@H]1O)NCCCN1CCCC1=O | inactive: 16.8% | –
Cc1ccccc1OCC(=O)Nc1cc(S(=O)(=O)N2CCCCC2)ccc1N1CCN(C)CC1 | – | inconclusive [inhibitor, single point]
CCOC(=O)c1ccc(N2C(=O)c3n[nH]c(-c4ccco4)c3C2c2ccc([N+](=O)[O-])cc2)cc1 (configuration not stated) | – | active: 7.08 µM
CCCN1CCN(c2cc3c(cc2F)c(=O)c(S(=O)(=O)c2ccc(Cl)cc2)cn3C)CC1 | – | inconclusive [inhibitor, partial curve, poor fit]
N#C/C(=C(/O)CN1CCN(c2ccccc2F)CC1)c1nc(-c2ccc(Cl)cc2)cs1 | – | inconclusive [inhibitor, partial curve]
Cc1nn(-c2ccccc2)c(Cl)c1/C=N/NC(=O)c1ccn[nH]1 | – | inconclusive [inhibitor, single point]
COc1ccc(-c2noc(-c3ccc(Cl)cc3[N+](=O)[O-])n2)cc1OC | inactive: 67% | –
Cn1cccc1Cc1nnc(SCC(=O)N2CCN(c3ccccc3)CC2)n1-c1ccc(F)cc1 | – | inconclusive [inhibitor, partial curve, poor fit]
CCc1ccc(C2=NNC(=Nc3cccc(S(=O)(=O)N(C)C)c3)SC2)cc1 | – | inconclusive [inhibitor, full curve, poor fit]
Cc1cccc(N=CC=C2OC(C)(C)C(C)(C)O2)c1 | – | inconclusive [inhibitor, single point]
CCOc1ncccc1C(=O)OCCCC(=O)c1ccc(Br)cc1 | – | inconclusive [inhibitor, single point]

SMILES | activity change, negative = inhibition | Potency
c1ccc(Nc2c3c(nc4ccccc24)CCC3)cc1 | – | active: 11.2 µM
Cc1ccc(C)c(S(=O)(=O)N2CCN(CC(=O)N3CCc4ccccc4C3)CC2)c1 | – | inconclusive [inhibitor, single point]
O=C(Nc1cccc(NS(=O)(=O)c2ccc(S(=O)(=O)NC3CC3)cc2)c1)c1ccccn1 | – | inconclusive [inhibitor, single point]
CCCC(=O)N(Cc1cc(=O)[nH]c2ccccc12)c1ccc(C)cc1C | – | inconclusive [inhibitor, single point]
CCOC(=O)c1cccc(C2=CC(=O)CC(C)(C)C2)c1 | – | inconclusive [inhibitor, single point]
CCn1c(=O)cc(SCC(=O)NCCC2=CCCCC2)c2ccccc21 | – | inconclusive [inhibitor, partial curve, poor fit]
Cc1cccc(C)c1NC(=O)CCCN1C(=O)CCn2nc(-c3cn(C)c4ccccc34)cc21 | inactive: -15.1% | –
Cc1cccc(Cn2nnc(C(=O)Nc3cc(C)ccc3C)c2N)c1 | – | inconclusive [inhibitor, partial curve, poor fit]
CCN(Cc1ccccc1)S(=O)(=O)c1csc(C(N)=O)c1 | – | inconclusive [inhibitor, single point]
COc1ccc(Br)c(Cn2c(C)c(C(=O)N(C)Cc3ccc(F)cc3)sc2=O)c1 | – | inconclusive [inhibitor, single point]
CN(C)c1ccc(C(CNC(=O)c2ccccc2)c2c[nH]c3ccccc23)cc1 (configuration not stated) | – | inconclusive [inhibitor, single point]
CCOC(=O)[C@]12CCC=C1N(Cc1ccco1)C(=O)[C@H](CC(=O)NCCCCc1ccccc1)C2 | – | inconclusive [inhibitor, single point]
O=C(CCl)Nc1cccc(S(=O)(=O)NC2=NCCCCC2)c1 | – | inconclusive [inhibitor, single point]
Cc1ccc(S(=O)(=O)n2nc(-c3ccco3)nc2NCc2ccccc2Cl)cc1 | – | inconclusive [inhibitor, single point]
CCn1cc2nc(SCC(=O)Nc3ccc(F)cc3F)n(Cc3ccccc3)c(=O)c2n1 | – | inconclusive [inhibitor, single point]
CC(NC(=O)c1ccc(F)cc1)c1ccc2c(c1)CCCC2 (configuration not stated) | – | active: 10 µM
C[C@@]12CCC=C[C@H]1[C@H](c1ccc(C(F)(F)F)cc1)N(Cc1ccccc1)C2=O | – | inconclusive [inhibitor, single point]
CCN1C(=O)[C@H]2[C@@H](c3ccc(C)cc3)N3C(=O)N(c4cccc(Br)c4)C(=O)[C@@]3(CC(C)C)[C@H]2C1=O | – | inconclusive [inhibitor, partial curve, poor fit]
Cc1cc(C)n2c(Nc3ccccc3)c(-c3ccccc3)nc2n1 | – | inconclusive [inhibitor, partial curve, poor fit]
Cc1cccc(NC(=O)c2ccc(COc3cccc4ccccc34)o2)n1 | – | inconclusive [inhibitor, single point]
CCCCN(C=O)c1c(CC)nc2c(OCc3ccc(Cl)cc3)cccn12 | – | inconclusive [inhibitor, partial curve, poor fit]

SMILES | activity change, negative = inhibition | Potency
Cc1cccc(OCc2nnc(SCC(=O)N(c3ccccc3)C3CCS(=O)(=O)C3)o2)c1 (configuration not stated) | – | inconclusive [inhibitor, single point]
CCN1CCN(c2ccc(S(=O)(=O)N3CCOCC3)cc2NC(=O)C(C)Oc2cccc(Cl)c2)CC1 (configuration not stated) | – | inconclusive [inhibitor, single point]
COc1ccc(-c2cc(C(=O)OCC(=O)N3CCCC3)c3ccccc3n2)cc1 | – | inconclusive [inhibitor, single point]
Cc1ccccc1CNC(=O)c1cc2cc(S(=O)(=O)N3CCCCC3)ccc2n1C | – | inconclusive [inhibitor, single point]
CCOC(=O)c1nnc(-c2ccc(C)cc2)nc1N1CCSCC1 | – | inconclusive [inhibitor, single point]
Cc1cc(N2CCN(c3cccc(C)c3C)CC2)n2nc(C)c(-c3ccc(Cl)cc3)c2n1 | inactive: 6.9% | –
Cc1cccc(C)c1OCc1cc(C(=O)N(Cc2nccn2C)C(C)C)no1 | – | inconclusive [inhibitor, single point]
CCOc1ccccc1NC(=S)Nc1ncccc1C | – | inconclusive [inhibitor, single point]
CC(C)(C)OC(=O)NCCCC[C@H](NC(=O)c1nc[nH]c1C(=O)NCc1ccccc1)C(=O)OC(C)(C)C | – | inconclusive [inhibitor, single point]
COc1cc(C(C)=O)ccc1OCCCN1CCC(Cc2ccccc2)CC1 | inactive: 4.23% | –
COc1ccc(C(=O)NCCn2cc(SCc3cc(C)ccc3C)c3ccccc32)cc1 | – | inconclusive [inhibitor, full curve, poor fit]
Nc1c(S(=O)(=O)c2cccc(Cl)c2)c2nc3ccccc3nc2n1CCN1CCOCC1 | – | inconclusive [inhibitor, partial curve, poor fit]
Cc1ccc(C(C)C)c(OCCCn2c(=O)oc3ccccc32)c1 | – | inconclusive [inhibitor, partial curve, poor fit]
Cc1cc(NC(=O)CC2CCCC2)n(-c2nc3ccccc3[nH]2)n1 | – | inconclusive [inhibitor, single point]
COc1cc2c(cc1OC)C(C)N(C(=O)Nc1ccccc1)CC2 (configuration not stated) | inconclusive: -41.8% [inhibitor] | –
O=C(CSc1nnc(CCc2ccccc2)n1-c1ccc(Cl)cc1)NCc1ccccc1 | – | inconclusive [inhibitor, partial curve, poor fit]
CN(CCc1ccccn1)C(=O)Nc1ccc(C(C)(C)C)cc1 | – | inconclusive [inhibitor, partial curve, poor fit]
Cc1ccc(C(=O)O)cc1NC(=O)C1=CSCCO1 | inactive: 10.4% | –
CCOc1cc(CNC(=O)c2ccc(Cn3c(=O)c4cccn4c4cccnc43)cc2)ccc1OC | inactive: 15.9% | –
Cc1cccc(C(=O)OC(C)C(=O)Nc2ccc(S(=O)(=O)N3CCCC3)cc2)c1O (configuration not stated) | – | inconclusive [inhibitor, partial curve, poor fit]

— PubChem BioAssay AID624417 (National Center for Advancing Translational Sciences (NCATS), 2012)
